# Measurements reported in PubChem BioAssay AID2676 (National Center for Advancing Translational Sciences (NCATS), 2010).
# About 1,100 (0.3%) of roughly 370,000 compounds were called active. Inconclusive results, whose numbers are uncertain, are shown with a selection of clear calls. The call rests on the fitted dose curve; in most records, active means well fitted activation curve with a large enough effect; inconclusive means small, poorly fitted or top-dose-only effect; inactive means flat fitted curve, though single readings scatter. Where the call is inconclusive, the potency comes from a doubtful curve fit.
# Target: Relaxin receptor 1 (Homo sapiens) (UniProt Q9HBX9)
# UniProt Q9HBX9, sequence (Q9HBX9 whole entry, looked up): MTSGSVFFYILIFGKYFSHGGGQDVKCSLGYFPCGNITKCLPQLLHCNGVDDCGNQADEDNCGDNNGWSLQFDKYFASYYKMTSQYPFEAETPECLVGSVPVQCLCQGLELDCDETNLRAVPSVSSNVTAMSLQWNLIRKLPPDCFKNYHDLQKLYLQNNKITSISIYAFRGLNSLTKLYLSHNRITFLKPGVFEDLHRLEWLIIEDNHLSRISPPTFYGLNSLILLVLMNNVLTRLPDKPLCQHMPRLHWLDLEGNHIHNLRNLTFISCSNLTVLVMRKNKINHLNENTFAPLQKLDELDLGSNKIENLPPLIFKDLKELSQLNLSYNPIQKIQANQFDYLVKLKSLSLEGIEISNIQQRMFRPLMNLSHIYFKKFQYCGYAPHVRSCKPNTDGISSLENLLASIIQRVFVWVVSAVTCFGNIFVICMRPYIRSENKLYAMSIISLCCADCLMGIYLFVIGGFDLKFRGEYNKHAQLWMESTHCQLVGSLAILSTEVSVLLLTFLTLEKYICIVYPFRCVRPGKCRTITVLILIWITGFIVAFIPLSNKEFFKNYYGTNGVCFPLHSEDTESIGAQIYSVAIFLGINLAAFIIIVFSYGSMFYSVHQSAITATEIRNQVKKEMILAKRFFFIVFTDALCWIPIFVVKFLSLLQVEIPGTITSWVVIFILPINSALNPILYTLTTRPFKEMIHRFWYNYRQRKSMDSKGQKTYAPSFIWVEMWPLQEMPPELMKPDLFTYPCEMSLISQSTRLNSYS
# Experiment: qHTS Assay for Agonists of the Relaxin Receptor RXFP1; further: nearly all actives have a fitted effect of over 60% in size
# Settings: HEK293T-RXFP1 cAMP TR-FRET, 30 min; series mostly up to 57.5 µM
# Excerpt: NIH Chemical Genomics Center [NCGC] NIH Molecular Libraries Probe Production Centers Network [MLPCN] MLPCN Grant: R03 MH085705-01A1 Assay Submitter (PI): Alexander Agoulnik NCGC Assay Overview: The relaxin hormone is involved in the variety of biological functions in normal tissues and diseases. The role of relaxin is well-established in female reproduction and parturition, mammary gland and endometrial development, maintenance of myometrial quiescence during pregnancy. Relaxin signaling through its G protein-coupled receptor (GPCR) RXFP1 results in ECM remodeling through regulation of collagen deposition, cell invasiveness, proliferation and overall tissue homeostasis. […] Recombinant human relaxin (rhRlx) is currently being tested in clinical trials as a protective agent in congestive heart failure, in treating severe preeclampsia, and as an anti-fibrotic agent in systemic sclerosis. Upon relaxin binding RXFP1 activation leads to the activation of adenylate cyclase (AC) via Gs. cAMP will activate PKA, which phosphorylates many signaling proteins. Thus, detection of cAMP increase is an easy and reliable indication of relaxin receptor activation. To screen for agonists of the relaxin receptor, a HEK293T cell line stably transfected with RXFP1 was used. RXFP1 activation was assayed by changes in cAMP levels as detected with a time-resolved fluorescence energy transfer (TR-FRET) cAMP detection kit.
# NCGC Assay Protocol Summary: This is a cell-based assay for cAMP second messenger response to screen for agonists of the RXFP1 receptor. The assay was conducted in the presence of a PDE4 inhibitor (Ro 20174). The cells were lysed and the cAMP levels were measured with a TR-FRET cAMP kit. Presence of cAMP in the cell lysate disrupts binding between the cryptate-labeled anti-cAMP and d2-labeled cAMP pair, leading to a decrease in the TR-FRET signal. Data were normalized to the controls for basal activity (buffer only) and 100% activity (29 nM porcine relaxin). The EC50 values were determined from concentration-response data modeled with the standard Hill equation 1536-well assay protocol for the HEK293 RXFP1 cAMP assay: (1) Add 3 ul HEK293 RXFP1 cell culture. 2000 cells/well in DMEM/F12, 10% FBS, 1x Pen/Strep (dispensed offline with MultiDrop Combi). (2) Incubate 16-24 hr at 37C, 5% CO2. (3) Add 1 ul 400uM Ro20174 in DPBS, 0.05% BSA, 0.005% Tween 20. (3) Add 23 nl compounds in DMSO solution. Final concentration was 0.5 - 58 uM. (4) Incubate 30 min at 37C, 5% CO2. (5) Add 1 ul cAMP-d2 in lysis buffer (HTRF cAMP HiRange kit, CisBio). (6) Add 1 ul anti-cAMP antibody-cryptate in lysis buffer (HTRF cAMP HiRange kit, CisBio). (7) Incubate 30 min at room temperature. (6) Detect the assay plate in a ViewLux plate reader (PerkinElmer) with Ex=320 nm, Em1=615 nm and Em2=665 nm. Keywords: relaxin, RXFP1, RXFP2, G-protein coupled receptor, cAMP, agonist, high throughput screening, MLSMR, MLSCN, NIH Roadmap, qHTS and NCGC
# Potency means the concentration at half of the fitted maximal effect; tags describe the fitted curve by direction and shape.
row,SMILES,Potency
1,COc1ccc(CN2C(=O)c3cccnc3C2=O)cc1S(=O)(=O)N1CC(C)CC(C)C1 (configuration not stated),"inconclusive: 25.1 µM [activator, partial curve]"
2,Brc1ccc(-c2ccc(CNCc3ccccn3)o2)cc1,"inconclusive: 22.4 µM [activator, partial curve]"
3,CN1CCN(C(=O)CCc2nnc3ccc(N4CCC5(CC4)OCCO5)nn23)CC1,"inconclusive: 17.8 µM [activator, partial curve]"
4,Cc1cc(C)nc(NC(=S)Nc2cccc(Cl)c2Cl)c1,"inconclusive: 39.8 µM [activator, single point]"
5,COc1ccccc1Cc1nc2ccccc2nc1SCC(=O)N1CCCc2ccccc21,"inconclusive: 35.5 µM [activator, single point]"
6,CC1Cn2cc(C(=O)Nc3ccccc3C(F)(F)F)c(=O)c3c(Cl)ccc(c32)O1 (configuration not stated),"inconclusive: 6.31 µM [activator, single point]"
7,Cc1sc2ncnc(OCC(=O)NCC3CCCO3)c2c1C (configuration not stated),"inconclusive: 25.1 µM [activator, partial curve]"
8,COc1cc(OC)c(OC)cc1/C=C1\Oc2cc(OCC(=O)N3Cc4ccccc4C[C@H]3C(=O)O)ccc2C1=O,"inconclusive: 28.2 µM [activator, partial curve]"
9,CC(=O)c1cc(C#N)c(N2CCN(c3ccccc3)CC2)nc1C,"inconclusive: 35.5 µM [activator, single point]"
10,N=c1n(CCO)c2ccccc2n1Cc1ccccc1F,inactive
11,Cc1ccc(/C=N/Nc2nc(N3CCCCC3)nc(N3CCCCC3)n2)o1,inactive
12,COc1ccc(CCNC(=O)CSc2ccc3ccccc3c2)cc1OC,"inconclusive: 20 µM [activator, partial curve]"
13,Cc1ccc(C(=O)NCC(=O)OCc2cc(=O)n3c(C)csc3n2)cc1,"inconclusive: 22.4 µM [activator, partial curve]"
14,COc1cc2[nH]c(=S)nc(NCc3ccccc3)c2cc1OC,"inconclusive: 39.8 µM [activator, single point]"
15,CCCCc1cc(=O)oc2cc(OCC(=O)Nc3ccccn3)ccc12,"inconclusive: 39.8 µM [activator, single point]"
16,COc1cccc(/C=N/NC(=O)Cn2cnc3c2c(=O)n(C)c(=O)n3C)c1,"inconclusive: 25.1 µM [activator, partial curve]"
17,COC(=O)c1ccc(C2C=C(c3ccc(Cl)cc3)Nc3nc4ccccc4n32)cc1 (configuration not stated),inactive
18,O=C(CSc1ncc2c(n1)-c1ccccc1N(Cc1ccc(F)cc1)S2(=O)=O)c1ccc(Br)cc1,"inconclusive: 31.6 µM [activator, single point]"
19,Brc1cc(Br)c2nc(-c3cccs3)ccc2c1,"inconclusive: 28.2 µM [activator, partial curve]"
20,O=c1oc2c(CN3CCN(CCO)CC3)c(O)ccc2cc1-c1ccccn1,"inconclusive: 22.4 µM [activator, partial curve]"
21,COc1ccc(C(=O)Nc2nc3ccc(S(C)(=O)=O)cc3s2)cc1,"inconclusive: 39.8 µM [activator, single point]"

row,SMILES,Potency
1,CCOc1ccc(CNC(=O)c2cc3c(=O)n(C)c4ccccc4c3s2)cc1,"inconclusive: 17.8 µM [activator, partial curve]"
2,O=C(c1ccc2c(c1)OCCO2)N(Cc1cccnc1)c1nc2ccc(F)cc2s1,"inconclusive: 35.5 µM [activator, single point]"
3,COc1cc(NC(=O)c2ccco2)c(C(=O)OCC(=O)Nc2ncc(Cl)cc2Cl)cc1OC,"inconclusive: 31.6 µM [activator, partial curve]"
4,CCOC(=O)c1c(NC(=O)CSc2nnnn2-c2ccccc2)sc2c1CC(C)(C)NC2(C)C,inactive
5,COCCCN1C(=O)C(=O)/C(=C(/O)c2ccc(OC(C)C)cc2)C1c1cccnc1 (configuration not stated),"inconclusive: 17.8 µM [activator, partial curve]"
6,S=c1nc(SCc2ccccc2)[nH]c2ccccc12,active: 28.2 µM
7,CCCCNC(=O)CCCn1c(=O)c2ccccc2n(Cc2ccccc2C)c1=O,"inconclusive: 39.8 µM [activator, single point]"
8,O=C(Nc1ccccc1)Nc1sccc1-c1nc2ccccc2s1,"inconclusive: 39.8 µM [activator, single point]"
9,Cc1nc(NCc2ccc(S(N)(=O)=O)cc2)c2c(C)c(C)sc2n1,"inconclusive: 35.5 µM [activator, single point]"
10,CC(C)(C)c1ccc(C(=O)N2CCC(C(=O)NCC3CCCO3)CC2)cc1 (configuration not stated),inactive
11,COc1cc(CN(C)Cc2cc(=O)n3ccsc3n2)ccc1OC(F)F,"inconclusive: 28.2 µM [activator, partial curve]"
12,CCOc1ccccc1N(C)C(=O)C1CCCN(c2ncnc3onc(-c4ccc(F)cc4)c23)C1 (configuration not stated),inactive
13,O=c1oc2c3c(ccc2c2ccccc12)OCN(Cc1cccc(Cl)c1)C3,"inconclusive: 28.2 µM [activator, single point]"
14,Cc1ccc(NC(=O)COC(=O)c2ccc(-n3cccn3)cc2)cc1C,"inconclusive: 25.1 µM [activator, partial curve]"
15,CCc1ccc(NC(=O)CSc2nc3ncc(Br)cc3[nH]2)cc1,"inconclusive: 39.8 µM [activator, single point]"
16,COc1ccccc1NC(=O)c1sc2ncn(Cc3ccccc3C)c(=O)c2c1C,"inconclusive: 39.8 µM [activator, single point]"
17,Cc1cccc(-c2cc3nc(C)cc(N4CC(C)CC(C)C4)n3n2)c1 (configuration not stated),inactive
18,Cc1sc2nc(Cc3ccccc3)[nH]c(=O)c2c1-c1ccccc1,"inconclusive: 39.8 µM [activator, single point]"
19,Cc1cc(C)c(NC(=O)CCn2c(=O)c3cccn3c3ccccc32)c(C)c1,inactive
20,CCc1ccc2c(c1)cc(CN(C(=S)Nc1cccc(C)c1)C1CC1)c1nnnn12,"inconclusive: 39.8 µM [activator, single point]"
21,Cc1cc(NC(=O)CSc2nc3c(cc2C#N)CCC3)no1,"inconclusive: 39.8 µM [activator, single point]"
